Over roughly 33,000 sequences, “E-score (-0.5 to 0.5)” has its median near -0.012; the highest 2% begin near 0.29. This is one part of the list.
What follows are sequences tested against T1, Ybr033w (UniProt P38073) (assay: PBM E-score (8-mer binding enrichment) (E-score (-0.5 to 0.5)); higher = stronger / more preferred TF binding; most listed sequences are background and not binding sites). Details: protein concentration: 200 nM; construct: GST-full length.
T1 sequence: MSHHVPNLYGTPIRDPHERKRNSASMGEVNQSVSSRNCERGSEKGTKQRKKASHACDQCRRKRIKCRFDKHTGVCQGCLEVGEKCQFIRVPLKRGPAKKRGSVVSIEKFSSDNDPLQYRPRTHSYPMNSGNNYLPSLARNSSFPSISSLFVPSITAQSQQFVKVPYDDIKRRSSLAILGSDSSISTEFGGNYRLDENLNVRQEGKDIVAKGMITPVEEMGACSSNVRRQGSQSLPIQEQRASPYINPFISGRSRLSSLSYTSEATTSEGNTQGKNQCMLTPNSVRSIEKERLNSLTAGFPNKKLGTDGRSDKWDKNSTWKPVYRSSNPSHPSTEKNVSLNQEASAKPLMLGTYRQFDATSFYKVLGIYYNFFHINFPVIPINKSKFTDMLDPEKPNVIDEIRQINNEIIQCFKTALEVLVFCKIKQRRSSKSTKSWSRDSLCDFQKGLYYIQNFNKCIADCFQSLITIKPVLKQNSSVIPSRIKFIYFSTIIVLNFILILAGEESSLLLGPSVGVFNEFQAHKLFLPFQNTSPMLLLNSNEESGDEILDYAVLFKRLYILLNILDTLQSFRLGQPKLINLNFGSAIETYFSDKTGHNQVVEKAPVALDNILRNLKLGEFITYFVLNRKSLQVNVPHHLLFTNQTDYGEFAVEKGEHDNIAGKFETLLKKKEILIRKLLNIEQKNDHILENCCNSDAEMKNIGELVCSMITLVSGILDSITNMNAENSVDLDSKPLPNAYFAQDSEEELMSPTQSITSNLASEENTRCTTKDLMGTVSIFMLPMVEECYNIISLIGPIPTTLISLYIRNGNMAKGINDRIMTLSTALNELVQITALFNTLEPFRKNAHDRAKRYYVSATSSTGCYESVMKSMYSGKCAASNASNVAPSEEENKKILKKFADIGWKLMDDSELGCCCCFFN
Procedure, shortened: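 Each ungapped eight-base word and its reverse complement, pooled, received an E-score from the Universal PBM Analysis Suite. Underlying scans, normalised with masliner, recorded fluorescent anti-GST bound to GST-tagged yeast transcription factors. These were applied at about 100-200 nM to universal all-10-mer Agilent arrays double-stranded by primer extension.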

Sequence	PBM E-score
GATTGTAC	0.0766
CCAATACA	0.0951
GAAGTTAC	0.236
TCATGAGA	0.0183
CATGACGA	-0.0691
CAAAGGAG	-0.0306
AAACGTGT	-0.0456
ATAAAGAG	0.169
GACGGCCA	-0.184
GCGCCGTA	-0.0822
CACTGATG	-0.0895
CCCTGCCC	-0.376
GCTTTGTA	0.192
ATTGCATG	0.125
CAAGCCGC	-0.159
ACTTTGAG	0.0497
AACGATCC	-0.0104
AGTAAATG	0.198
ACGGTACA	0.029
ATCCCGTC	-0.0397
CAGTCCTC	-0.256
AAGGGGGT	-0.316
AATGGTCG	0.0305
CCGTTTCC	-0.0353
CGTCCCTC	-0.217

Sequence	PBM E-score
AAGTGGCT	-0.014
GCAGACTA	-0.0945
CCGAAAGC	-0.223
TAACGTGA	-0.0631
GGGATGGA	-0.308
CATGTTCG	-0.0241
CGAAAAAA	0.213
ACGCTGCG	-0.106
CTTACCTC	-0.232
ATCCCAGC	-0.0249
TCAGAGGA	-0.185
CGCTGCAG	-0.12
CAAGGCCG	-0.0978
AAGTAGTC	0.0604
GATGTTAC	0.153
GGCATAGA	0.00074
AGCCACTC	-0.275
GGACTTAA	-0.133
AAAGTTCG	0.0769
CGAACCAA	0.161
CCCGCGAG	-0.162
AAAATCAC	0.285
AGTCAAGA	-0.0169
AAGGTGAA	-0.0947
GTAGAAAC	0.106

Sequence	PBM E-score
AACCGTAG	-0.218
AAAATTTT	0.293
ATTTGCTA	0.177
TCCCAACA	-0.0027
CGCTCAAG	-0.115
CCTCAACA	0.0703
ACCCAGTC	-0.178
CGAAGCAA	0.0447
CAGTTCCA	0.0467
CACACTGC	-0.138
AGTCCTAT	0.145
ATGTGCCA	-0.0592
AATTACAG	0.225
CCTATCCC	-0.138
CTTAAAGC	-0.0103
CCACTGGA	-0.0583
ATCCTGAG	0.0527
AACGTGAT	0.0757
CCGATTGA	-0.0131
CCATGGCG	-0.104
CCAAAATC	0.11
AGACGCCC	-0.179
GCGCCACA	-0.0765
AAATTTTA	0.171
CTTCACGC	0.0228

Sequence	PBM E-score
CTCCCGAA	-0.125
ATCCACTA	0.122
CACAGTGC	-0.0524
AAAATGCA	0.0946
AACTCAGA	0.0822
CCTTTCCG	-0.152
GCATATCA	0.138
GCCTTTCC	-0.254
GGAAACCC	0.0664
AAACCAAT	0.272
GCGTTAAA	0.0229
CAACATGA	0.137
CAGCTAAA	0.17
GGGGAGAC	-0.311
AACGTATT	0.0826
AGCAGTAT	0.0236
ACTCAAGG	-0.154
GTACAAAA	0.167
TACCCCGA	-0.0991
CAACGTTC	-0.0163
ATTTCACC	0.158
CTTTCCTA	0.0109
AGGTTGGA	0.179
CTGTTGAA	0.211
ATCGTGTG	0.0723

Sequence	PBM E-score
ATTTTGGC	0.145
ACAGGCCA	-0.226
ACTTTAAC	0.0287
ACTGGTTA	0.0889
CGTCAATC	0.0124
CAGTTGTA	-0.00378
ATATCCCA	0.156
AGAAGTAG	0.00438
GATTGCGC	0.134
TCAGTCAA	-0.0701
ACAGCCAA	-0.0314
GGCGACAA	-0.263
CGCGGAAC	0.0781
CAGGGCGC	-0.163
AGTGTAAG	0.0687
CCCTAAGG	-0.21
ACAAGGGC	-0.276
AGCGGAGA	0.0585
ACTATATC	0.229
GTCGGATA	0.168
CGAGGCCA	-0.183
ATGGAGAG	-0.12
CATAGCTA	-0.246
AATCTCCT	0.0894
AGGCGACG	-0.072

Sequence	PBM E-score
GGGGACCC	-0.247
CCCGTGAC	-0.262
AACCATCA	0.148
ATTCATAC	0.184
ATGCAAAT	0.0849
ATGAGTGC	0.0844
CTAAAAAA	0.267
ACAACAGG	0.104
GATTTTAA	0.122
AAAATCAG	0.188
CTCTTATC	0.209
CTTATCAA	0.214
ATGGATTG	0.263
CAAGGTAA	0.0861
AGTACTAC	0.229
GCTCTACA	-0.0497
GGCTGGCA	-0.324
AGAGAAGC	0.0136
ACGATTGG	0.00198
CCATCTCG	-0.179
CTGGTGTA	-0.186
ATGCCTTC	-0.0958
AGGGAGCG	-0.132
AGCGGTTA	-0.056
CATACCGG	-0.102

Sequence	PBM E-score
ATATTCAT	0.226
CCGTTGAC	-0.185
ACCGTCTC	0.0143
ACACCTAC	-0.0252
ACCGACCA	0.0105
ATCAAGGA	0.0684
AAAGATCA	0.173
CCTTTCCC	-0.0266
ATGTAAAA	0.281
AGGGCAAG	0.0869
ATACGATG	0.153
AACAGGGG	-0.127
GCTTCGCA	-0.207
GAGCGAGC	0.0539
ACGTATGG	0.115
ACTGTCTA	-0.0253
ACTTCAAG	0.0875
CACAGCCC	-0.319
GTGAAGGA	0.0608
CAAACCGA	-0.144
ATGAACAC	0.0659
ACGAAAAT	0.259
